In the RNAGym collection of RNA variant scans (doi:10.7554/elife.90254):
The source gives no read counts; variants with many changes may rest on few reads.

B1: OR4K15 (parent)
chain: GUUAACGGUCAUAGGCCAUGGAAACUAGGAGCACCAUUUCGCUGCCAGUGAAGAAAUGAACAAAGAAAAUCUGGGCCAGGCAGGCAUCAAAAGAAAUAGUCUUGCGCUCAACCAGAAAGUCUGUAAUCAUUUUAAGGGUA

Variants of: B1
Assay: self-cleavage, relative activity (ratio to wild type); higher = more cleavage; in vitro, sequencing; the parent is a self-cleaving ribozyme

Row | Variant | self-cleavage
1 | GUUAACGGUCAUAGGCCAUGGAAACUAGGAACACCACUUCGCUGCCAGUGAAGAAAUGUACAGAGAAAAUCUGGGCCAGGCAGGCAUCAAAAAAAAUAGUCUUGCGCUCAACCAGAAAGUCUGUAAUCAUUUUAAGGGUA [G31A U37C A59U A63G G93A] | 1.27
2 | GUUAACGGUCAUAGGCCACGGAAACUAGGAGCACCAUUUCGCUGCCAGUGAAGAAAUGAACAAAGAAAAUCUGGGCCAGGCAGGCAUCAAAGGAAAUAGUCUUGCGCUCAACCAGAAAGGCUGUGAUCAUUUUAAGGGUA [U19C A92G U120G A125G] | 0.47
3 | GUUAACGGUCAUAGGCCAUGGAAACUAGGAGCACCAUUUCGCUGCCAGUGAAGAAGUGAACAAAGAAAAUCUGGGCCAGGCAGGCAUCAAAAGAGAUAGUCUUGCGCUCAACCAGAAAGUCUGUAAUCAUUUUAAGGGCA [A56G A95G U139C] | 1.43
4 | GUUAACGGUCAUAGGCCAUGGAAACUAGGGGCACCAUUUCGCUGCCAGUGAGGAAAUGAACAAAGAAAAUCUGGGCCAGGCAGGCAUCAAAAGAAAUAGUCUCGCGCUCAACCAGAAAGUCUGUAAUCAUUUUAAGGGUA [A30G A52G U103C] | 0.3
5 | GUUAACGGUCACAGGCCAUGGAAACUAGGGGCACCAUUUCGCUGCCAGUGAAGAAAUGAACAAAGAAGAUCUGGGCCAGGCAGGCAUCAAAAGAAAUAGUCUUGCGCUCAACCAGAAAGUCUGUAAUCAUUUUAAGGGUA [U12C A30G A68G] | 1.02
6 | GUUAACGGUCAUAGGCCAUGGAAACUAGGAGCACCAUUUCGCUGCCAGUGAAGAAAUGAACAAAGAGAAUCUGGGCCAGGCAGGCAACAAAAGAAAUAGUCUUGCGCUCAACCAGAAAGUCUGUAGUCAUUUUAAGGGUA [A67G U87A A126G] | 1.75
7 | GUUAACGGUCAUAGGCCAUGGAAACUAGGAGCACCAUUUCGCUGCCAGUGGAGAAAUGAACAAGGAAAAUCUGGGCCAGGCAGGCAUCAAAAGAAAAAGUCUUGCGCUCAACCAGAAAGUCCGUAAUCAUUUUAAGGGUA [A51G A64G U97A U122C] | 1.82
8 | GUUAACGGUCUUAGGCCAUGGAAACUAGGAGCACCAUUUCGCUGCCAGUGAAGAAAUGAACAAAGAAAAUCUGGGCCGGGCAGGCAUCGAAAGAAAUAGUCUUGCGCUCAACCAGAAAGUCUGUAAACAUUUUAAGGGUA [A11U A78G A89G U127A] | 0.31
9 | GUUAUCGGCCAUAGGCCAUGGAAACUAGGAGCACCAUUUCGCUGCCAGUGGAGAAAUGAACAAAGAAAAUCUGGGCCAGGCAGGCAUCAAGAGAGAUAGCCUUGCGCUCAACCAGAAAGUCUGUAAUCAUUUUAAGGGUA [A5U U9C A51G A91G A95G U100C] | 2.61
10 | GUUAACGGUCAUAGGCCAUGGAAACUAGGAGCACCAUUUCGCUGCCGGUGAAGAAAUGAACAAAGGAAAUCUGGGCCAGGCAGGCAUCAAAAGAAAUAGUCUUGCACUCAACCAGAAAGUCUGUAAUCAUUUUAAGGGUA [A47G A66G G106A] | 0
11 | GUUAACGGUCAUAGACCAUGGAACCUAGGAGCACCAUUUCGCUGCCAGUGAAGAAAUGAACAAAGAAAAUCUGGGCCAGGCAGGCAUCAAAAGUAAUAGUCUUGCGCUCAACCAGAAUGUCUGUAGUCAUUUUAAGGGUA [G15A A24C A94U A118U A126G] | 0.83
12 | GUUACCGGUCAUAGGCCAUGGAAACUAGGAGCACCAUUUCGCUGCCAGUGAAGAAAUGAACAAAGAAAAUCUGGGCCAGGCAGGCAUCAAAAGAAAUAGUCCUGCGCUCAACCAGAAAGUCUGUAAUCAUCUCAAGGGUA [A5C U102C U131C U133C] | 1.46
13 | GUUAACGGUCAUAGGCCAUGGAAACUAGGAGCACCAUUUCGCUGCCAGUGAAGAAAUGAACAAAGAAAAUCUGGGCCAGGCAGGCAUCAAAAGAAAUAGUCUUGCGCUCAACCAGAAUGUCCGUAACCAUUUUAAGGGUA [A118U U122C U127C] | 0.33
14 | GUUAACGGUCAUAGGCCGUGGAAACUAGGAGCACCAUUUCGCUGCCAGUGAAGAAAUGAGCAAAGAAAAUCUGGGCCAGGCAGGCAUCAAAAGAAAUAGCCUUGCGCUCAACCAGAAAGUCUGUAAUCAUUUUAAGGGUA [A18G A60G U100C] | 1.88
15 | GUUAACGGUCAUAGGCCAUGGAAACUAGGAGCACCAUUUCGCUGCCAGUGAAGAAAUGGACAAAGAAAAUCUGGGCCAAGCAGGCAUCAAAAGAAAUAGUCUUGCGCUCAACCGGAAAGUCUGUAAUCAUUUUAAGGGUG [A59G G79A A114G A140G] | 0.04
16 | GUUAACGGUCAUAGGCCAUGGAAACUAGGAGCACCAUUUCGCUGCCAGUGAAGAAAUGAACAAAGAAAAUCCGGGCCAGGCAGGCAUCAAAAGAAGUAGUCUUGCGCUCAACCAGAAAGUCCGUAAUCAUUUUAGGGGUA [U72C A96G U122C A135G] | 0.07
17 | GUUAGCGGUCAUAGGCCAUGGAAACUAGGAGCACCAUCUCGCGGCCAGUGAAGAUAUGAACAAAGAAAAUCUGGGCCAGGCAGGCAUCAAAAGAAAUAGUCUUGCGCUCAACCAGAGAGUCUGUAAUCAUUUUAAGGGUA [A5G U38C U43G A55U A117G] | 1.58
18 | GUUAACGGUCAAAGGCCAUGGAAAUUAGGAGCACCAUUUCGCUGCCAGUGAAGAAAUGAACAAAGAAAAUCUGGGCCAGGCAGGCAUCAAAGGAAAUAGUCUUGCGCUCAACCAGAGAGUCUGUAAUCAUUUUAAGGGUU [U12A C25U A92G A117G A140U] | 1.52
19 | GUUAACGGUCAUAGGCCAUGGAAACUAGGAGCACCAUUUCGCUGCCAGUGAAGAAAUGAACAAAGAAAAUCUGGGCCAGGCAGGCAUCAAAAGUAAUAGACUUGCGCUCAACCAGAAAGUCUGUAAUCUUUUUAAGGGUA [A94U U100A A129U] | 0.08
20 | GUUAACGGUCAUAGGCCAUGGAAACUAGGAGCACCAUUUCGCUGCCAGUGAAGGAGUGAACAAAGAAAAUCUGGGCCAGGCAGGCAUCAGAAGAAAGAGUCUUGCGCUCAACCAGAAAGUCUGUAAUCAUUUUAAGGAUA [A54G A56G A90G U97G G138A] | 0.87
21 | GUUAACGGUCAUAGGCCAUGGAAACUAGGAGCACCAUUUCGCUGCCAGUGAAGAGAUGAACAAGGAAAAUCUGGGCCAGGCAGGCCUCAAAAGAAAUAGUCUUGCGCUCAUCCAGAAAGUCUGUAAUCGUUUUAGGGGUA [A55G A64G A86C A111U A129G A135G] | 0
